Source: publication PMC4336329 (PLoS ONE, 2015)
Hit rate of the full screen: of about 310,000 compounds, about 14,000 (4.5%) showed an effect of 50% or more. Effects have a minus sign here. Some of the results follow.

biological target: human ether-à-go-go-related gene (hERG) potassium channel (human, UniProt Q12809); assay: primary screen, population patch clamp on CHO cells stably expressing hERG
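Further: peak tail current of the secondary pulse compared with the same well before compound.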

Chain of human ether-à-go-go-related gene (hERG) potassium channel (Q12809 whole entry, looked up): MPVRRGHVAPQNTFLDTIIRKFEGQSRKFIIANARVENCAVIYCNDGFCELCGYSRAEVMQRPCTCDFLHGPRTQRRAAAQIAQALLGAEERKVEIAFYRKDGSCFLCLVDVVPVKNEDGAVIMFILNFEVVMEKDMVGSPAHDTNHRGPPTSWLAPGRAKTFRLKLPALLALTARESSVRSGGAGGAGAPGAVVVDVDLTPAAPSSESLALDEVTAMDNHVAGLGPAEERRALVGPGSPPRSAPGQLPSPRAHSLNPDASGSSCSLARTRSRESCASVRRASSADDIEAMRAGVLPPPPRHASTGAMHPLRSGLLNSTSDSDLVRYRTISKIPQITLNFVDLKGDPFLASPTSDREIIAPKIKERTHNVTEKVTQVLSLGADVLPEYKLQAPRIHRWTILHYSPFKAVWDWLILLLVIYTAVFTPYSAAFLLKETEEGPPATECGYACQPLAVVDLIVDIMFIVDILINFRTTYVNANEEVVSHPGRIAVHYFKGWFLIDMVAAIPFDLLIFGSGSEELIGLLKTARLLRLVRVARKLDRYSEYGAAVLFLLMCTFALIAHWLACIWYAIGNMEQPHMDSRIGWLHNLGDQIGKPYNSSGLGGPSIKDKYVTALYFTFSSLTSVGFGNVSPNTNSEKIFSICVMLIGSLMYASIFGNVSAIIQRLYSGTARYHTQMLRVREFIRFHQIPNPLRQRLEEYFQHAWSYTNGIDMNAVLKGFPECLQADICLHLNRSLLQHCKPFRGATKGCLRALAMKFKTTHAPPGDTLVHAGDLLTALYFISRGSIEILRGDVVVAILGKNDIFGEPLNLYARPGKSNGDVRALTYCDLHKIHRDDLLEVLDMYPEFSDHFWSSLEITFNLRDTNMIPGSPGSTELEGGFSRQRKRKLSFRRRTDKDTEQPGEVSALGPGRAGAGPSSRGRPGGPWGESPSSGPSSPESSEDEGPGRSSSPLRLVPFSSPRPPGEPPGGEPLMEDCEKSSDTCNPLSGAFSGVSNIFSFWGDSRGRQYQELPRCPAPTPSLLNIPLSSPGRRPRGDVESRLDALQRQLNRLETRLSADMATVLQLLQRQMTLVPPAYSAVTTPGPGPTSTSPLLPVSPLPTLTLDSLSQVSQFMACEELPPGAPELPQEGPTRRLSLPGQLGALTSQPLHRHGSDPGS

| SMILES | hERG current change (%, negative = inhibition) at 10uM |
| --- | --- |
| O=C(N/N=C1\CC2CC=CC12)c1ccc(O)cc1 (centres unmarked) | 14.7% |
| COCCNC(=O)c1onc(CSc2ccccc2)c1C(=O)NCCOC | 7.75% |
| NS(=O)(=O)c1ccc(CNS(=O)(=O)c2ccc3c(c2)OCCO3)cc1 | 4.28% |
| CCOC(=O)c1ccc(NC(=O)NNC(=O)CCc2ccc(OC)cc2)cc1 | 30.1% |
| S=c1nc[nH]c2c1cnn2Cc1ccccc1 | 21.8% |
| O=C(COc1ccc(C(=S)N2CCCC2)cc1)Nc1ccccc1C(F)(F)F | 0.616% |
| CC(Sc1nnc(-c2cccs2)n1Cc1ccccc1)C(=O)NCc1ccc2c(c1)OCO2 (centres unmarked) | -55.9% |
| N#Cc1c(-c2ccco2)cc(-c2cccnc2)nc1N | -9.61% |
| Clc1ccc(N2CCN(c3ncnc4c3oc3ccccc34)CC2)cc1 | 4.58% |
| O=C(Cc1ccccc1)Nc1ccccc1Sc1ccccc1 | -2.63% |
| COc1ccc(CNc2cc(C)nc3ccc(OC)cc23)cc1 | -72.8% |
| C[C@@H]1O[C@@H]1P(=O)([O-])[O-].[Na+] | 1.81% |
| C=C(C)c1cccc(C(C)(C)NC(=O)Nc2ccc(C(N)=O)cc2)c1 | 3.53% |
| COC(=O)C1=NN(c2ccccc2)C2(S1)SC(C(C)=O)=C(C)N2c1ccccc1 (centres unmarked) | -46.1% |
| CCOC(=O)N1CCC(Nc2c(NCCCN3CCN(CC)CC3)c(=O)c2=O)CC1 | 5.08% |
| O=[N+]([O-])c1cc(-c2cnc3ccccc3n2)ccc1Oc1ccc(Br)cc1 | -8.32% |
| COc1ccc(OC)c(NC(=O)N2CCCC(C)C2)c1 (centres unmarked) | 12.6% |
| CC(C)c1ccc(CN2C(=O)NC3(CCCCCC3)C2=O)cc1 | 10.3% |
| CN(C)CCCNC(=O)c1cc(C(=O)c2c(Cl)cccc2Cl)c[nH]1 | -9.62% |
| CCOc1ccc(C(=O)/C=C/Nc2ccc(S(=O)(=O)Nc3cc(C)nc(C)n3)cc2)cc1 | -11.5% |
| CC(C)(C)NC(=O)NC(=O)CN1CCCCCCC1 | 29.6% |
| COc1c(F)c(F)c(C(=O)Nc2ccccc2N2CCN(C(C)=O)CC2)c(F)c1F | -6.56% |
| C=CCS/C(N)=N\N=C\c1cc(Br)cc([N+](=O)[O-])c1O | 6.65% |

| SMILES | hERG current change (%, negative = inhibition) at 10uM |
| --- | --- |
| Cc1ccc(S(=O)(=O)Nc2ccc3c(c2)n(C)c(=O)n3C)cc1 | 15.2% |
| CCOc1cc(S(=O)(=O)NCC2CCCO2)ccc1F (centres unmarked) | 13.8% |
| O=C(NC1CCCc2ccccc21)c1ccc(CNc2c(N3CCOCC3)c(=O)c2=O)cc1 (centres unmarked) | 10.7% |
| O=C(N/N=C/c1cccc2ccccc12)C(=O)N1CCCC1 | 7.68% |
| COc1cccc(-c2ccc(NC(=O)C3CCCN(Cc4cc(C)[nH]n4)C3)cc2)c1 (centres unmarked) | -36.5% |
| Cc1ccc2c(c1)NC(=O)C(N1CCOCC1)(C(F)(F)F)O2 (centres unmarked) | 13% |
| C=CCN1C(=O)C(CC(=O)NCC)SC1=Nc1ccccc1OC (centres unmarked) | 19.5% |
| COc1cccc(-c2cc(C(F)(F)F)n3ncc(C(=O)NCC4CCCO4)c3n2)c1 (centres unmarked) | -15.1% |
| CC1Oc2ccccc2N(Cc2cccc(F)c2)C1=O (centres unmarked) | 7.56% |
| O=C(CSc1nc2cc(Cl)ccc2o1)c1cccs1 | 1.04% |
| COc1ccc(OC)c(C2NC(=S)NC3=C2N2CCC3CC2)c1 (centres unmarked) | 23.3% |
| COc1ccccc1N1CCN(S(=O)(=O)c2cn(C)c(=O)n(C)c2=O)CC1 | 10.8% |
| COc1ccc(C2=NOC(CNC(=O)c3ccccc3Br)C2)c(OC)c1 (centres unmarked) | 5.06% |
| CC(C)CCCn1c(O)c(/C=C2/C=CC=N2)c(=O)[nH]c1=O | 6.88% |
| CN(C(=O)c1cccnc1)c1nnc(-c2cnccn2)s1 | 8.06% |
| CCN1CCN(CC(=O)Nc2cccc(C)c2)C(=O)C1=O | 13.9% |
| C=CCn1c(C)cc(-c2csc(N)n2)c1C.Cl | -3.56% |
| CCN(C(=O)C(C)Cl)c1ccccc1 (centres unmarked) | 24.2% |
| COc1ccccc1OCCn1c(SCC(N)=O)nc2ccccc21 | 8.49% |
| N#Cc1c(N)nc2c(c1N)CC(COc1ccccc1)O2 (centres unmarked) | -6.98% |
| O=C(CSCCS(=O)(=O)c1ccc(Cl)cc1)Nc1ccccc1 | -0.34% |
| O=C(Nc1cccc2nsnc12)c1ccc(F)cc1 | -10.7% |
| Clc1cccc(Cl)c1/C=N/Nc1c(Cl)cncc1Cl | 1.19% |

| SMILES | hERG current change (%, negative = inhibition) at 10uM |
| --- | --- |
| O=C(NCCSCc1ccco1)Nc1cc(Cl)cc(Cl)c1 | 7.75% |
| O=C(CSc1ncnc2sc3c(c12)CCC3)NCC1CCCO1 (centres unmarked) | -1.35% |
| COc1cccc(OC)c1-c1nn2c(-c3ccco3)nnc2s1 | -14.5% |
| CN(CC(=O)Nc1ccccc1Br)C(=O)c1cccc([N+](=O)[O-])c1 | -7.61% |
| COc1ccc(CCN2CC(C(=O)NCc3ccccc3)CCC2=O)cc1 (centres unmarked) | -8.79% |
| COc1ccc(NC(=O)c2cc(S(=O)(=O)N3CCCC3)c[nH]2)cc1 | 17.9% |
| CC(C)(C)NC(=O)CSc1nnc(CN2CCCCCC2=O)n1-c1ccccn1 | 15.8% |
| Cc1ccc(C(=O)NCC(=O)OCC(=O)NC(C)c2ccccc2)s1 (centres unmarked) | 2.48% |
| COCCCn1c(SCC(=O)NCc2ccco2)nc2sc3c(c2c1=O)CCC3 | -37.3% |
| O=C(NNC(=O)c1cccnc1)NC1CCCCC1 | 29.3% |
| COc1ccc(N=C2NC(=O)C(CO)(CO)S2)cc1 | 15.7% |
| N#Cc1c(N)[nH]c(=S)c(C#N)c1-c1ccccc1 | 14.9% |
| NC(=O)c1ccc2c(=O)n3c(-c4cc(Cl)c(N)c(Cl)c4)csc3nc2c1 | -17.5% |
| O=C(C1CCC1)N1CCc2cc(S(=O)(=O)N3CCc4ccccc4C3)ccc21 | 4.48% |
| O=C(O)c1ccc(NC(=S)Nc2ccccc2)cc1 | 8.33% |
| CC1C2NC(=O)N(Cc3ccccc3)C1(C)Oc1ccccc12 (centres unmarked) | -7.42% |
| Cc1ccc(S(=O)(=O)NNC(=O)Nc2ccccc2F)c(C)c1 | -7.65% |
| Nc1ccc2nc(SCC(=O)N3CCN(c4ccccc4)CC3)sc2c1 | -13.7% |
| O=C(NC1CCCC1)C(c1ccsc1)N(CCc1ccccc1)C(=O)Cc1cccs1 (centres unmarked) | 14.4% |
| O=[N+]([O-])c1ccc2nc(CCCc3nc4ccc([N+](=O)[O-])cc4[nH]3)[nH]c2c1 | -43.1% |
| CCC(C)N(C(=O)c1csnn1)C(C(=O)NC1CCCC1)c1ccc(F)cc1 (centres unmarked) | 0.39% |
| O=C(COC(=O)/C=C/c1cccc([N+](=O)[O-])c1)NCC1CCCO1 (centres unmarked) | -4.51% |
| Cc1ccccc1N=Nc1c(O)[nH]c2ccccc12 | 15.2% |

| SMILES | hERG current change (%, negative = inhibition) at 10uM |
| --- | --- |
| O=C(COC(=O)Cn1cnc2ccccc21)NCCc1ccccc1 | -0.336% |
| O=C1C2CCCN2C(=O)N1CCCN1CCN(c2ccc([N+](=O)[O-])cc2)CC1 (centres unmarked) | -68.3% |
| O=C(N/N=C\c1cccc(Cl)c1)c1ccc(Cn2cc(Br)c([N+](=O)[O-])n2)o1 | -47.9% |
| O=C(Nc1cccc(C(=O)N2CCCc3ccccc32)c1)c1ccccc1 | -25% |
| Cc1ccccc1C(=O)NC1CCN(CC(=O)Nc2ccccc2)CC1 | -6.23% |
| COc1ccc(NC(=O)CN(C)CC(=O)c2[nH]c(C)c(C(C)=O)c2C)cc1 | -18.3% |
| CCOC(=O)c1cc(C)sc1/N=C/C1C(=O)CCCC1=O | -14% |
| COc1ccc(NC(=O)c2ccccc2NC(=O)c2ccccc2C(=O)O)c(OC)c1 | 26.9% |
| COC(=O)c1ccc(C(=O)OC)c(NC(=O)C(C)C)c1 | 11.7% |
| CN(c1ccc(F)cc1)S(=O)(=O)c1ccc(Cl)c(C(=O)Nc2ccc3c(c2)CCC3)c1 | 10.9% |
| CCC(C)NC(=O)c1cn(CC)c2ccc(S(=O)(=O)N(C)C)cc2c1=O (centres unmarked) | 1.45% |
| COc1ccc(CNC(=O)c2cc(=O)c3ccc(C)c(C)c3o2)cc1 | 19.5% |
| COc1ccc(C(=O)NCc2nnc(SCC(=O)c3ccccc3)o2)cc1 | 13.8% |
| Cc1ccc(C)c(S(=O)(=O)N2CCCC2CNC(=O)c2ccc([N+](=O)[O-])cc2)c1 (centres unmarked) | -81.8% |
| CCOC(=O)c1ccc(N=C2SC(C(=O)NC)CC(=O)N2Cc2ccc(F)cc2)cc1 (centres unmarked) | 5.3% |
| COc1ccccc1N1CCN(C(=O)c2sc3ncnc(N4CCN(c5ccccn5)CC4)c3c2C)CC1 | -18.8% |
| CS(=O)(=O)c1ccccc1C(=O)Nc1cccc(-c2nc3ccccc3o2)c1 | 8.25% |
| CCN(CC)CCOC(=O)c1ccc(N/C=C(/C#N)c2nc(-c3cc4ccccc4oc3=O)cs2)cc1 | 6.62% |
| Cc1ccc(S(=O)(=O)/N=C(\N)Nc2nc(C)c3ccccc3n2)cc1 | -4.72% |
| COc1ccc(CN2CCNC(=O)C2CC(=O)NCc2csc(C)n2)c(F)c1 (centres unmarked) | 24.6% |
